# Data from the supplement of paper PMC8183993.
# Structures can show the parent of a compound that is named as a salt. ± gives the standard deviation of the averaged measurements. Over roughly 3,200 compounds, “nuclei count (viability) relative to DMSO” has its median near 99; the lowest 2% begin near 16. The list shows a part of the results.
# Tested on: U2OS
# Assay: nuclei count (viability) relative to DMSO (% of DMSO); higher = more viable cells
# Conditions: 10 µM; 24 h
# Experimental: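 Primary image-based screen in U2OS cells: compounds at 10 uM for 24 h, then a 1 h o-propargyl-puromycin (OPP) pulse, click labelling, and high-throughput microscopy. Mean cytoplasmic OPP intensity and nuclei count were normalised to DMSO wells within each plate (DMSO = 100) and averaged over triplicate plates.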
row,SMILES,nuclei count
1,O[C@H]1[C@H](O)[C@@H](O)CN2CC[C@H](O)[C@H]12 [Castanospermine],97.3
2,"NCC(CC(=O)O)c1ccc(Cl)cc1 (racemic) [Baclofen (R,S)]",102
3,N[C@@H]1C[C@H]1c1ccccc1 [Tranylcypromine hydrochloride],89.7 ± 9.1
4,O=C(O)[C@@H]1[C@H](C(=O)O)[C@H]2CC[C@@H]1O2 [Endothall],93.5
5,CC(=O)[C@H]1CC[C@H]2[C@@H]3CC[C@H]4C[C@](C)(O)CC[C@]4(C)[C@H]3CC[C@]12C [Ganaxolone],97.3
6,CN(C)CCc1ccc(O)cc1 [Hordenine],101
7,C/C(=C\c1csc(C)n1)[C@@H]1C[C@@H]2O[C@@H]2CCC[C@H](C)[C@H](O)[C@@H](C)C(=O)C(C)(C)[C@@H](O)CC(=O)O1 [Epothilone A],43.4
8,COc1ccc(N(C(=O)Oc2c(C)cccc2C)c2ccnc(Nc3ccc(N4CCN(C)CC4)cc3)n2)c(OC)c1,104
9,COC1=C[C@@H]2[C@@H]3Cc4ccc(OC)c(O)c4[C@]2(CCN3C)CC1=O [Sinomenine (Cucoline)],101
10,CC(C)(O)[C@H]1O[C@H]2CC[C@@]3(C)[C@@](O)(CC[C@H]4Cc5c([nH]c6ccccc56)[C@@]43C)C2=CC1=O [Paxilline],91.2 ± 11
11,C#C[C@]1(O)CC[C@H]2[C@@H]3CCC4=CC(=O)CCC4=C3C=C[C@@]21CC [Gestrinone],94.5
12,O=C(O)C1=CCCN(CCOC(c2ccc(C(F)(F)F)cc2)c2ccc(C(F)(F)F)cc2)C1 [CI 966 hydrochloride],96.9
13,CN1[C@@H]2C[C@@H](OC(=O)[C@H](CO)c3ccccc3)C[C@H]1[C@@H]1O[C@@H]12 [Scopolamine hydrochloride],104
14,CN1[C@@H]2C[C@@H](OC(=O)[C@H](CO)c3ccccc3)C[C@H]1[C@@H]1O[C@@H]12 [Scopolamine HBr],99
15,CN1[C@@H]2C[C@@H](OC(=O)[C@H](CO)c3ccccc3)C[C@H]1[C@@H]1O[C@@H]12 [Scopolamine hydrobromide],102
16,Cc1ncsc1CCCl [Chlormethiazole hydrochloride],85.2
17,CCOC(=O)c1cncn1[C@H](C)c1ccccc1 [Etomidate],94.25 ± 0.25
18,"CN1CCc2cc3c(cc2C1C1OC(=O)c2c1ccc1c2OCO1)OCO3 (single isomer, unassigned; (+)) [(+)-Bicuculline]",100 ± 5.5
19,CC(O)(CS(=O)(=O)c1ccc(F)cc1)C(=O)Nc1ccc(C#N)c(C(F)(F)F)c1 (stereo unspecified) [Bicalutamide],103
20,CCN1CCN(C(=O)Cc2ccc(Nc3ncc(F)c(Nc4ccc(C(=O)Nc5ccccc5Cl)cc4)n3)cc2)CC1 [Aurora A Inhibitor I],51.4
21,CN1C2CCC1CC(OC(c1ccccc1)c1ccc(Cl)cc1)C2 (stereo unspecified),83.5
22,NCC1(CC(=O)O)CCCCC1 [Gabapentin],93.6
23,"O=c1cccc2n1C[C@@H]1CNC[C@H]2C1 [Cytisine (Baphitoxine, Sophorine)]",85
24,O=c1cccc2n1C[C@@H]1CNC[C@H]2C1 [(-)-Cytisine],99.6

row,SMILES,nuclei count
1,O=[N+]([O-])O[C@H]1CO[C@H]2[C@@H]1OC[C@H]2O[N+](=O)[O-] [Isosorbide dinitrate],97.4
2,Fc1ccc(C(OCCN2CCN(C/C=C/c3ccccc3)CC2)c2ccc(F)cc2)cc1,97.1
3,C=C1CC[C@@]2(O)[C@H]3Cc4ccc(O)c5c4[C@@]2(CCN3CC2CC2)[C@H]1O5 [Nalmefene hydrochloride],97.1
4,CCCCC1(C2CCCC2)Cc2cc(OCCCC(=O)O)c(Cl)c(Cl)c2C1=O (stereo unspecified),102
5,O=C(CCCN1CCC2(CC1)C(=O)NCN2c1ccccc1)c1ccc(F)cc1 [Spiperone],97.7
6,O=C(CCCN1CCC2(CC1)C(=O)NCN2c1ccccc1)c1ccc(F)cc1 [Spiperone hydrochloride],39.1
7,CC(N)C(O)c1ccccc1 (stereo unspecified) [Phenylpropanolamine hydrochloride],101
8,O=c1[nH]oc2c1CCNC2 [THIP Hydrochloride],109
9,O=c1[nH]oc2c1CCNC2 [THIP hydrochloride],104
10,CN1CC[C@@H]2CN3CCc4cccc(c43)[C@@H]2C1 [SDZ SER 082 fumarate],100
11,C[N+]1(C)CCc2cc3c(cc2[C@H]1[C@@H]1OC(=O)c2c1ccc1c2OCO1)OCO3 [(-)-Bicuculline methochloride],99.6
12,C[N+]1(C)CCc2cc3c(cc2[C@H]1[C@@H]1OC(=O)c2c1ccc1c2OCO1)OCO3 [(-)-Bicuculline methiodide],90.9
13,NC(N)=Nc1ccc2[nH]c3c(c2c1)C[C@@]1(O)[C@H]2Cc4ccc(O)c5c4[C@@]1(CCN2CC1CC1)[C@H]3O5 [GNTI dihydrochloride],101
14,CCOC(=O)c1ncn2c1[C@@H]1CCCN1C(=O)c1cc(OC)ccc1-2,102
15,CC[C@@H](CO)NC(=O)[C@@H]1C=C2c3cccc4[nH]cc(c34)C[C@H]2N(C)C1 [Methylergometrine maleate],95 ± 13
16,CCC1(C2=NCCN2)Cc2ccccc2O1 (stereo unspecified) [Efaroxan hydrochloride],105
17,CN(C)c1ccc(/C=C2\CCCN=C2c2cccnc2)cc1 [DMAB-anabaseine dihydrochloride],97.5
18,C[C@@H]1C[C@@H]([C@H](O)CC2CC(=O)NC(=O)C2)C(=O)[C@@H](C)C1 [Cycloheximide],41.8 ± 9.8
19,O=C(O)c1nn(Cc2ccc(Cl)cc2Cl)c2ccccc12 [Lonidamine],95.1
20,Cc1cc(C(C#N)c2ccc(Cl)cc2)c(Cl)cc1NC(=O)c1cc(I)cc(I)c1O (stereo unspecified) [Closantel],88
21,CC(C)(C)c1cc(C=C(C#N)C#N)cc(C(C)(C)C)c1O [Tyrphostin 9 (SF 6847)],65.1
22,CN1[C@@H]2CC[C@H]1C[C@@H](OC(=O)c1cc(Cl)cc(Cl)c1)C2,111
23,NC(C(=O)O)c1nn[nH]n1 (racemic) [(RS)-(Tetrazol-5-yl)glycine],105
24,COc1ccc(CC2NCCc3cc(OC)c(OC)cc32)cc1OC (stereo unspecified) [Tetrahydropapaverine HCl],100

row,SMILES,nuclei count
1,CCCCCC[C@H]1C(=O)O[C@H](C)[C@H](NC(=O)c2cccc(NC=O)c2O)C(=O)O[C@@H](C)[C@@H]1OC(=O)CC(C)C [Antimycin A],107
2,"c1ccc(C2CNCc3ccccc32)cc1 (stereo unspecified) [4-Phenyl-1,2,3,4-tetrahydroisoquinoline hydrochloride]",103
3,c1ccc2c(c1)OCC(C1=NCCN1)O2 (stereo unspecified) [Idazoxan hydrochloride],72.3 ± 2.1
4,CCC[C@@H]1CC2=CC(=O)CC[C@]2(C)[C@H]2CC[C@@]3(C)[C@@H](CC[C@@]3(O)CCC(=O)O)[C@H]12,104
5,Cc1nnc2n1-c1sc(CCC(=O)N3CCOCC3)cc1C(c1ccccc1Cl)=NC2,102
6,c1ccc([C@@H]2C[C@H]2NC2CCNCC2)cc1,103
7,CC[N+]1(C)CCCC(OC(=O)C(O)(c2ccccc2)c2ccccc2)C1 (stereo unspecified) [Pipenzolate bromide],101
8,C/C=C(/C)C(=O)O[C@H]1C(C)=C2[C@H]([C@@H]1OC(=O)CCCCCCC)[C@@](C)(OC(C)=O)C[C@H](OC(=O)CCC)[C@@]1(O)[C@H]2OC(=O)[C@@]1(C)O [Thapsigargin],29 ± 23
9,COC1(C[S@+]([O-])c2ccccc2)CCN(CCc2c[nH]c3ccc(F)cc23)CC1,97.2
10,CC1C=CC=CCCC=CC=CC=CC=CC(OC2OC(C)C(O)C(N)C2O)CC2OC(O)(CC(O)C(O)CCC(O)CC(O)CC(O)CC(=O)OC(C)C(C)C1O)CC(O)C2C(=O)O (stereo unspecified) [Nystatin (Mycostatin)],105
11,C[C@]12CC[C@H](O)CC1=CC[C@@H]1[C@@H]2CC[C@]2(C)C(=O)CC[C@@H]12 [Dehydroepiandrosterone (DHEA)],114
12,COc1cc2c(c(OC)c1OC)-c1ccc(OC)c(=O)cc1[C@@H](NC(C)=O)CC2 [Colchicine],17.7 ± 1.8
13,CC[C@@H](CO)NC(=O)[C@@H]1C=C2c3cccc4c3c(cn4C)C[C@H]2N(C)C1 [Methysergide maleate],101
14,N#C[C@H](O[C@@H]1O[C@H](CO[C@@H]2O[C@H](CO)[C@@H](O)[C@H](O)[C@H]2O)[C@@H](O)[C@H](O)[C@H]1O)c1ccccc1 [Amygdalin],101
15,"CC(=O)N1CC[N+](C)(C)CC1 [4-Acetyl-1,1-dimethylpiperazinium iodide]",103
16,CN1C[C@H](CNC(=O)OCc2ccccc2)C[C@@H]2c3cccc4c3c(cn4C)C[C@H]21 [Metergoline],99.6 ± 8.9
17,O=[N+]([O-])c1ncc[nH]1 [Azomycin (2-Nitroimidazole)],105
18,O=C(NCNC(=O)NC1C(=O)NC(=O)N1CO)NC1C(=O)NC(=O)N1CO (stereo unspecified) [Imidurea],111
19,CC(=O)O[C@H]1CC[C@@]2(C)C(=CC[C@@H]3[C@@H]2CC[C@]2(C)C(=O)CC[C@@H]32)C1 [Dehydroisoandosterone 3-acetate],96.3
20,Oc1ccc2c3c1O[C@H]1[C@@H](O)CC[C@@]4(O)[C@@H](C2)N(CC2CCC2)CC[C@]314 [Nalbuphine hydrochloride],105
21,O=C1CN=C(c2cccc(Br)c2)c2oc3ccccc3c2N1,78.5
22,C[C@]12CC[C@H](O)C[C@H]1CC[C@@H]1[C@@H]2CC[C@]2(C)[C@@H](C3=CC(=O)OC3)CC[C@]12O [Digitoxigenin],18.4
23,CC(C)c1cc2c(c(O)c1O)[C@@]1(C(=O)O)CCCC(C)(C)[C@@H]1CC2 [Carnosic acid],94.5
